The list shows a part of the results. Sequences were assembled here from the parent chain. Values near 0.05 are background.
B1: TEV protease; numbered along this chain (parent)
chain: MGESLFKGPRDYNPISSSICHLTNESDGHTTSLYGIGFGPFIITNKHLFRRNNGTLVVQSLHGVFKVKDTTTLQQHLVDGRDMIIIRMPKDFPPFPQKLKFREPQREERICLVTTNFQTKSMSSMVSDTSCTFPSGDGIFWKHWIQTKDGQCGSPLVSTRDGFIVGIHSASNFTNTNNYFTSVPKNFMELLTNQEAQQWVSGWRLNADSVLWGGHKVFMVKPEEPFQPVKEATQL

Variants of: B1
Assay: raw area under fraction-flipped curve 0-4 h after induction (AUC4h, not background-subtracted), DNA-recorder readout of cleavage of the substrate (dimensionless); higher = more cleavage of the substrate by the protease variant
Details: temperature: 34 °C; time window: 0-4 h after rhamnose induction
Protocol: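 In vivo DNA recorder in E. coli TOP10(DE3) ΔrhaA at 34 °C. Each TEVp single-site mutant (parent TEVp 0) is paired with a single-site variant of the 7-mer TEVs (canonical ENLYFQ|S). The substrate sits between flexible linkers in a Bxb1-sfGFP-TEVs-SsrA fusion, so cleavage stabilises Bxb1 and speeds flipping of a recombination array, read by NGS. The value is the raw area under the fraction-flipped curve over 0-4 h after rhamnose induction (AUC4h), with ≥20 reads per time point. It is not background-subtracted; inactive controls average about 0.047.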
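Note: Bxb1 expression induced with 0.2% (w/v) L-rhamnose at OD600 near 0.5, cultures sampled hourly, flipped fraction per protease–substrate barcode pair counted by paired-end Illumina sequencing.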

| Variant | area with substrate CNLYFQS | area with substrate GNLYFQS | area with substrate HNLYFQS | area with substrate KNLYFQS | area with substrate NNLYFQS | area with substrate TNLYFQS | area with substrate VNLYFQS | area with substrate WNLYFQS | area with substrate YNLYFQS | area with substrate MNLYFQS | area with substrate PNLYFQS | area with substrate SNLYFQS | area with substrate INLYFQS | area with substrate LNLYFQS | area with substrate FNLYFQS | area with substrate RNLYFQS | area with substrate DNLYFQS | area with substrate QNLYFQS |
| --- | --- | --- | --- | --- | --- | --- | --- | --- | --- | --- | --- | --- | --- | --- | --- | --- | --- | --- |
| M122K | 0.0622 | 0.0763 | 0.0506 | 0.0627 | 0.0891 | 0.0528 | 0.0504 | 0.0553 | 0.0664 |  |  |  |  |  |  |  |  |  |
| M122Y | 0.0616 | 0.0723 | 0.0699 | 0.0788 | 0.0544 | 0.0552 | 0.0712 | 0.0701 | 0.0583 | 0.0517 | 0.0694 | 0.0848 |  |  |  |  |  |  |
| M122P | 0.0761 |  | 0.0606 | 0.0609 |  | 0.0722 | 0.0623 | 0.0643 |  |  | 0.056 | 0.0731 | 0.0536 | 0.0667 |  |  |  |  |
| F133D | 0.058 | 0.0731 | 0.0627 |  | 0.076 | 0.0698 |  | 0.0669 |  |  | 0.0713 | 0.0784 | 0.0614 | 0.0775 | 0.0582 | 0.0593 |  |  |
| T132S | 0.0736 | 0.0958 | 0.0633 | 0.0711 |  | 0.0749 | 0.0523 | 0.0591 | 0.0601 |  |  |  |  | 0.0731 |  |  |  |  |
| T132F | 0.0394 |  | 0.048 |  | 0.0501 | 0.048 | 0.0548 | 0.0578 |  | 0.06 | 0.0542 | 0.0825 | 0.0672 | 0.0089 | 0.0461 |  |  |  |
| T132Y | 0.062 | 0.0555 |  | 0.0597 |  |  |  | 0.0495 |  | 0.0728 | 0.0607 | 0.0648 | 0.0446 |  | 0.0518 |  |  |  |
| T132G | 0.0623 |  | 0.0574 |  | 0.0752 | 0.064 |  | 0.0556 | 0.0559 | 0.0719 | 0.07 | 0.0568 | 0.0541 |  |  |  |  |  |
| Q146N | 0.087 |  | 0.0658 |  |  |  |  | 0.0606 |  | 0.0521 |  | 0.0679 | 0.066 |  |  |  |  |  |
| T147Y | 0.0547 |  | 0.0579 | 0.0697 | 0.0927 | 0.0568 |  |  |  |  | 0.0533 | 0.0491 |  | 0.0468 | 0.044 |  |  |  |
| I139N | 0.0503 | 0.067 | 0.0567 | 0.0668 |  | 0.0641 | 0.0465 | 0.0451 | 0.0694 | 0.0598 | 0.0642 |  | 0.0624 | 0.0757 |  |  | 0.0723 | 0.0581 |
| I139Q | 0.0572 | 0.0574 | 0.0586 | 0.0653 |  | 0.0592 |  | 0.0855 |  | 0.0557 |  |  |  | 0.0556 | 0.0606 |  |  |  |
| S135I | 0.0664 | 0.0504 | 0.0623 | 0.0541 | 0.059 | 0.0572 | 0.0602 | 0.082 | 0.0598 | 0.0598 |  | 0.0586 |  | 0.0684 | 0.0484 |  |  | 0.0539 |
| S135D | 0.0782 |  | 0.0671 |  |  |  |  | 0.0681 | 0.0336 | 0.0783 | 0.0652 | 0.0692 | 0.0589 | 0.0784 | 0.0621 |  |  |  |
| D128H | 0.0818 |  | 0.0752 |  | 0.0594 | 0.0752 |  | 0.0655 | 0.07 | 0.0676 | 0.0901 | 0.0816 |  | 0.076 | 0.0857 | 0.0604 |  | 0.0598 |
| V126G | 0.0614 | 0.0596 |  | 0.0623 | 0.0622 |  | 0.0716 | 0.0672 |  |  |  |  |  | 0.073 |  |  | 0.0692 |  |
| S123T | 0.0744 | 0.0581 |  | 0.0658 |  | 0.0506 | 0.0603 |  | 0.0701 | 0.0738 | 0.065 | 0.0582 |  | 0.0622 | 0.0404 |  |  | 0.0673 |

| Variant | area with substrate CNLYFQS | area with substrate GNLYFQS | area with substrate HNLYFQS | area with substrate KNLYFQS | area with substrate NNLYFQS | area with substrate TNLYFQS | area with substrate VNLYFQS | area with substrate WNLYFQS | area with substrate YNLYFQS | area with substrate MNLYFQS | area with substrate PNLYFQS | area with substrate SNLYFQS | area with substrate INLYFQS | area with substrate LNLYFQS | area with substrate FNLYFQS | area with substrate RNLYFQS | area with substrate DNLYFQS | area with substrate QNLYFQS |
| --- | --- | --- | --- | --- | --- | --- | --- | --- | --- | --- | --- | --- | --- | --- | --- | --- | --- | --- |
| K148M | 0.062 |  | 0.0643 |  | 0.0435 | 0.0744 |  | 0.0536 | 0.0598 | 0.0709 | 0.0757 | 0.0731 |  | 0.0574 | 0.0693 | 0.0682 |  |  |
| T129P | 0.0674 | 0.0619 | 0.0554 | 0.0731 |  | 0.0598 |  | 0.0512 | 0.0589 |  | 0.0597 | 0.0745 | 0.0652 | 0.0663 | 0.0618 |  |  | 0.0889 |
| G138Q | 0.0488 |  | 0.064 | 0.0601 |  |  | 0.0459 |  |  |  | 0.0934 | 0.0728 |  |  |  |  | 0.206 |  |
| W144Q | 0.0614 | 0.0663 | 0.053 | 0.064 |  | 0.0677 |  | 0.0595 |  | 0.0257 | 0.0803 | 0.0625 | 0.065 | 0.0602 |  |  |  |  |
| W144T | 0.0787 |  |  | 0.0683 |  | 0.0777 |  | 0.0642 | 0.0626 | 0.059 | 0.0676 |  |  |  |  |  |  |  |
| Q118N | 0.0728 |  | 0.11 |  | 0.0637 |  |  |  | 0.0512 | 0.0423 | 0.0662 | 0.0684 |  |  |  |  |  |  |
| M125L | 0.0759 | 0.0666 | 0.0678 |  | 0.0634 | 0.0637 |  | 0.061 |  |  | 0.0651 |  |  |  | 0.0503 | 0.0983 |  |  |
| I145C | 0.0728 | 0.0503 | 0.0683 |  | 0.0651 | 0.0981 |  | 0.0554 | 0.0518 | 0.0613 | 0.0824 |  |  | 0.0732 | 0.0646 |  |  |  |
| S121A | 0.0433 | 0.0646 | 0.0651 | 0.0723 |  | 0.0697 |  | 0.0491 |  | 0.0646 | 0.0573 | 0.0762 | 0.0651 | 0.0662 |  | 0.0597 |  |  |
| S121Y | 0.0595 | 0.0802 | 0.0557 |  | 0.0683 | 0.0621 |  |  |  |  | 0.0808 | 0.0693 | 0.074 |  |  |  |  |  |
| S121E | 0.0606 | 0.0676 |  | 0.0552 |  |  |  |  | 0.0523 |  | 0.075 |  | 0.0579 | 0.0692 |  |  |  |  |
| F140I | 0.0535 | 0.0548 | 0.061 | 0.062 |  | 0.0629 | 0.0546 | 0.0557 | 0.0556 |  | 0.0569 | 0.0557 | 0.0524 | 0.0624 |  |  |  |  |
| F140M | 0.0525 | 0.0835 |  | 0.0623 | 0.0574 |  |  |  |  |  |  | 0.0663 |  | 0.0561 |  |  |  | 0.0678 |
| F140P | 0.0618 | 0.0629 | 0.0501 |  | 0.0492 | 0.0553 | 0.0537 | 0.0614 |  |  | 0.0591 | 0.075 |  | 0.0561 |  |  |  | 0.0725 |
| P134E | 0.0544 | 0.0643 |  | 0.0634 |  | 0.0593 |  | 0.0536 | 0.0558 | 0.0691 | 0.0619 | 0.0699 | 0.0356 |  | 0.0716 |  |  |  |
| P134L | 0.0401 | 0.063 | 0.0631 |  | 0.052 |  |  |  | 0.0619 | 0.0677 | 0.0707 | 0.0486 |  | 0.0516 | 0.0395 |  |  |  |
| G136P | 0.0694 | 0.0442 | 0.0828 | 0.0557 | 0.0377 | 0.0599 |  | 0.0533 | 0.063 | 0.0669 |  | 0.0602 |  |  |  |  |  |  |
